About 6,400 (1.6%) of roughly 410,000 compounds were called active. The inconclusive results got no clear call from the source; some entries with a clear call stand among them for comparison. Calls come from the whole dose curve; as a rule, active = well fitted inhibition curve with a large enough effect; inconclusive = small, poorly fitted or top-dose-only effect; inactive = no such curve, though single readings can be large or run the other way. Potencies of inconclusive entries are left out as doubtful fits.
Each molecule was assayed against Glucagon-like peptide 1 receptor (Homo sapiens) (UniProt P43220) (assay: qHTS of GLP-1 Receptor Inverse Agonists (Inhibition Mode)). Conditions: HEK293 GLP-1R CRE-luciferase, luminescence, 24 h, GLP-1R form is constitutively active; activity change, negative = inhibition: at 38.3 µM (top of the series) unless noted.
UniProt P43220, sequence (P43220 whole entry, looked up): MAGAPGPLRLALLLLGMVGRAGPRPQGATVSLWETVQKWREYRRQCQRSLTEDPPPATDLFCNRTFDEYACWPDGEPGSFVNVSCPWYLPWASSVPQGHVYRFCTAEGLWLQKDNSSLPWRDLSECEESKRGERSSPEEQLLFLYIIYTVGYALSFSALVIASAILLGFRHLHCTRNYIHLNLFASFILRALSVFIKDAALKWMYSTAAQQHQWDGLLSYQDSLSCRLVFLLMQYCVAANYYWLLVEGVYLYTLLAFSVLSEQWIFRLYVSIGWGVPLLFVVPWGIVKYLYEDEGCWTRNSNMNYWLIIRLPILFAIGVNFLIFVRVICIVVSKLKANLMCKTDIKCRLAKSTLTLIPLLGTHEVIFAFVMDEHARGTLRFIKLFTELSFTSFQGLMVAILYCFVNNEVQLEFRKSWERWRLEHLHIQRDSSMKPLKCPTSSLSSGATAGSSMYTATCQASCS
Method in brief: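 Readout was luciferase luminescence, measured 12 min after detection reagent at room temperature. Beforehand, GLP-1R reporter HEK293 cells had sat 12 h, then received compounds for 24 hr at 37 deg C.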
% is set by controls: 0 for no effect and ±100 for the full control effect; potency is the fitted concentration of half-maximal effect; tags give direction and shape of the fitted curve.
Note: nearly all actives have a fitted effect of over 55% in size.

Compound	Potency	activity change, negative = inhibition
Cc1ccc(-c2cc(C(=O)Nc3ccc(S(=O)(=O)N4CC(C)OC(C)C4)cc3)[nH]n2)c(O)c1 (stereo not given)	active: 1.12 µM	–
CCn1c(C)c(C)c2cc(C(=O)NCCCN3CCOCC3)ccc21	inconclusive [inhibitor, single point]	–
COc1ccc(-c2coc3c(C(=O)Nc4ccc(OC)nc4)cccc23)c(C)c1	inconclusive [inhibitor, single point]	–
CCC(=O)N1CCc2cc(Br)cc(S(=O)(=O)N3CCN(C(=O)c4ccco4)CC3)c21	–	inactive: -31%
COc1ccccc1C1CCN(c2cc(O)ccc2[N+](=O)[O-])CC1	inconclusive [inhibitor, single point]	–
Cc1cc(C)cc(N2C(=O)CN(Cc3ccccc3)C2=S)c1	inconclusive [inhibitor, single point]	–
O=C(NN=C1CCCC1)c1ccn[nH]1	–	inactive: 8.44%
CC(C)(O)C#Cc1ccc(C(=O)Nc2ccc3c(c2)OCO3)s1	inconclusive [inhibitor, partial curve, poor fit]	–
COc1ccc(Nc2cc(C)nc3c(C)cccc23)cc1OC	inconclusive [inhibitor, full curve, poor fit]	–
COc1ccc(NC(=O)c2cc(-c3sc(NC(=O)c4ccccc4)nc3C)n(Cc3ccccc3)n2)cc1	inconclusive [inhibitor, partial curve]	–
COc1ccc2nc(-c3ccco3)c(-c3ccco3)nc2c1	–	inactive: 1.1%
c1ccc2c(CCNc3ncnc4nc[nH]c34)c[nH]c2c1	inconclusive [inhibitor, partial curve, poor fit]	–
O=C(NCc1cccs1)c1cc(-c2ccccc2)on1	–	inactive: 5.92%
S=C(NC1CCCCC1)NC1CC2C=CC1C2 (stereo not given)	inconclusive [inhibitor, partial curve, poor fit]	–
O=C(CNCc1ccc(F)cc1)Nc1ccccc1-c1ccccc1	inconclusive [inhibitor, single point]	–
CCN(CC)CCN(C(=O)C1=COCCO1)c1nc2cc(C)cc(C)c2s1	inconclusive [inhibitor, partial curve, poor fit]	–
CCCC/C(C)=N\NC(=O)CNS(=O)(=O)c1ccc([N+](=O)[O-])cc1	inconclusive [inhibitor, single point]	–
Cc1ccc(C)c(C(=O)COC(=O)c2cc([N+](=O)[O-])ccc2NCCO)c1	inconclusive [inhibitor, single point]	–
CSc1ccc(CN2CCC(C)(Oc3ccc(CC#N)cc3)C2)cc1 (stereo not given)	inconclusive [inhibitor, partial curve]	–
Cc1ccc(C(C)C)c(OCc2nn(CC(=O)c3ccc(OC(F)F)cc3)c3[n+]2CCCCC3)c1	inconclusive [inhibitor, partial curve, poor fit]	–
c1ccc(CCNc2ccc3c(c2)Cc2ccccc2-3)nc1	inconclusive [inhibitor, single point]	–
CC(C)Oc1ccc(C2CC(=O)N(Nc3ccc([N+](=O)[O-])cc3[N+](=O)[O-])C2=O)cc1 (stereo not given)	–	inactive: 17.7%

Compound	Potency	activity change, negative = inhibition
Cc1cccc(N=C2SC(C)CN2C(=O)CN2C(=O)NC3(CCCC3)C2=O)c1 (stereo not given)	inconclusive [inhibitor, single point]	–
Cc1ccc(C)c(C(C)NC(=O)c2ccccc2Br)c1 (stereo not given)	inconclusive [inhibitor, single point]	–
OCCCNc1nc(-c2ccc(Cl)cc2)nnc1-c1ccc(Br)cc1	inconclusive [inhibitor, partial curve, poor fit]	–
Cc1cc(S(=O)(=O)NCC2CC2)c(Cl)cc1Cl	–	inconclusive: -59.2% [inhibitor]
O=C(O)c1ccc(-c2nc3scc(-c4ccccc4)c3c(=O)[nH]2)cc1	–	inactive: 14.4%
COc1cc(/C=N/NC(=O)CC23CC4CC(CC(C4)C2)C3)cc(Br)c1OCC(=O)N(C)C	inconclusive [inhibitor, partial curve, poor fit]	–
N#C/C(=C(/O)COC(=O)Cc1c[nH]c2ccccc12)c1nc2ccccc2[nH]1	–	inactive: -13.7%
CSCC(=O)N1CCCC(CNC(=O)c2ccc(-c3ccccc3)cc2)C1 (stereo not given)	inconclusive [inhibitor, single point]	–
CN1CCN(c2nc(-c3ccccc3)ncc2S(=O)(=O)c2ccccc2)CC1	inconclusive [inhibitor, partial curve, poor fit]	–
Cc1ccc(NC2=CC(=O)CC(c3ccccc3)C2)cc1 (stereo not given)	inconclusive [inhibitor, partial curve]	–
COc1ncccc1C(=O)N1CCCC(C(=O)Nc2cccc(-c3ccc(F)cc3)c2)C1 (stereo not given)	inconclusive [inhibitor, single point]	–
CN(CCCN1CCCCC1)C(=O)c1cc(COc2ccc(F)cc2F)on1	inconclusive [inhibitor, partial curve, poor fit]	–
O=C(NCc1ccc2c(c1)OCO2)c1cccc(C(=O)NCc2ccc3c(c2)OCO3)c1	inconclusive [inhibitor, single point]	–
Oc1ccccc1-c1n[nH]c(-c2ccccc2O)n1	inconclusive [inhibitor, single point]	–
O=C1C=Cc2cccc3ccc(O)c1c23	inconclusive [inhibitor, full curve, poor fit]	–
Cc1sc2ncnc(N3CCC(C(=O)Nc4nc(-c5ccc(F)cc5)cs4)CC3)c2c1C	inconclusive [inhibitor, partial curve, poor fit]	–
CCCn1c(CCC(=O)Nc2cc(OC)cc(OC)c2)nc2cccnc21	–	inactive: 11.1%
CCCCOc1ccc(Cn2c(=O)sc3ccccc32)cc1OC	inconclusive [inhibitor, single point]	–
Cc1ccc(C2NC(=O)c3sc(=S)n(-c4ccccc4)c3N2)cc1 (stereo not given)	inconclusive [inhibitor, partial curve, poor fit]	–
CCOc1ccccc1-c1nc(-c2ccc(NC(=O)Cc3ccc(OC)cc3)cc2)no1	inconclusive [inhibitor, single point]	–
COC(=O)c1scc(-c2ccc(C)cc2)c1S(=O)(=O)Nc1cc(Cl)c(OC)cc1OC	inconclusive [inhibitor, single point]	–
Cc1ccccc1CCNC(=O)c1ccc2c(c1)nc1n2CCOC1	inconclusive [inhibitor, partial curve]	–

Compound	Potency	activity change, negative = inhibition
Clc1ccc(Br)c(-c2nc3ccccc3[nH]2)c1	inconclusive [inhibitor, single point]	–
CCN1CCN(CCCOc2ccc(-c3ccccc3)cc2)CC1	inconclusive [inhibitor, single point]	–
Cc1cc(C(=O)CN2C(=O)C(=O)N(CCC3=CCCCC3)C2=O)c(C)n1C	inconclusive [inhibitor, single point]	–
CCCCNC(=O)C[C@@H]1C[C@@]2(C(=O)OC)CC(C)(C)CC=C2N(Cc2ccc3c(c2)OCO3)C1=O	inconclusive [inhibitor, single point]	–
O=C(NCCc1ccccc1)c1c[nH]c2ccccc2c1=O	–	inactive: -5.43%
O=C(NCC1CCCO1)c1nn2c(c1Cl)NC(c1ccc(F)cc1)CC2C(F)(F)F (stereo not given)	inconclusive [inhibitor, partial curve, poor fit]	–
CC1(C)Cc2c(cnn2-c2ccc(F)cc2)C(NC(=O)c2ccoc2)C1 (stereo not given)	–	inactive: -38.5%
CCOC(=O)c1ccc(N2C(=O)c3[nH]nc(-c4ccc(C)cc4)c3C2c2cccs2)cc1 (stereo not given)	active: 8.91 µM	–
CCCNC(=O)c1onc(CSc2ccc(F)cc2)c1C(=O)NCC1CC1	inconclusive [inhibitor, single point]	–
N=c1scc(-c2ccccc2)n1/N=C/c1ccco1	–	inactive: 4.03%
O=C(NC1CCCCC1)N1CCN(C(c2ccccc2)c2ccccc2)CC1	active: 3.98 µM	–
CSc1ncc(C(=O)Nc2ccccc2C(F)(F)F)c(-c2ccccc2)n1	–	inactive: 0.487%
COc1ccccc1NC(=O)COc1ccc(Br)cc1CNCCCN1CCOCC1	inconclusive [inhibitor, single point]	–
O=C1CCC(OCc2ccccc2)CCN1CC[C@@H](Sc1ccccc1)c1ccccc1 (stereo not given in full)	inconclusive [inhibitor, single point]	–
COC(=O)c1ccc(N2CCN(S(=O)(=O)c3ccc(Br)cc3)CC2)c([N+](=O)[O-])c1	inconclusive [inhibitor, single point]	–
N#CCCC(C#N)(c1cccnc1)N1CCOCC1 (stereo not given)	–	inactive: -2.69%
Cc1ccccc1-c1nnc(SCC(=O)Nc2cccnc2Cl)o1	inconclusive [inhibitor, partial curve, poor fit]	–
O=C(NCc1ccco1)C1CC(c2ccccc2O)=NO1 (stereo not given)	inconclusive [inhibitor, full curve, poor fit]	–
Cn1c(=O)c2c([nH]c(=S)n2CCCc2ccccc2)n(C)c1=O	–	inactive: -6.6%
CCCCN(CCCC)CCCNC(=O)Cn1cc2c(n1)-c1c(oc(C(=O)N3CCCC3)c1C)CC2	inconclusive [inhibitor, single point]	–
COc1ccc(CNC(=O)C2(CC3CC(c4ccccc4)=NO3)CCN(C(=O)OC(C)(C)C)CC2)cc1 (stereo not given)	inconclusive [inhibitor, partial curve, poor fit]	–
